The list shows a part of the results.
Assays:
Experiment in all cases: glycan array binding signal (z-score within array); higher = stronger binding
Settings in all cases: glycan notation: IUPAC condensed, linker removed
[1] = target: Neu5Ac(a2-6)Gal(b1-3)GlcNAc(b1-3)[Gal(b1-4)GlcNAc(b1-6)]Gal(b1-4)Glc
Method in brief: (§1)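 Arrays were curated from the Consortium for Functional Glycomics database, 3228 in total, and kept only where the protein sequence was available. Binding is expressed as a within-array Z-score. This score was averaged across arrays of the same protein sequence at different concentrations or buffers and across linkers, and negative values can be read as non-binding.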

Neu5Ac(a2-6)Gal(b1-4)Glc = target: Neu5Ac(a2-6)Gal(b1-4)Glc
Method in brief: as §1

[2] = target: Neu5Ac(a2-6)Gal(b1-4)GlcNAc
Method in brief: as §1

[3] = target: Neu5Ac(a2-6)Gal(b1-4)GlcNAc(b1-2)Man
Method in brief: as §1

[4] = target: Neu5Ac(a2-6)Gal(b1-4)GlcNAc(b1-2)Man(a1-3)Man(b1-4)GlcNAc(b1-4)GlcNAc
Method in brief: as §1

[5] = target: Neu5Ac(a2-6)Gal(b1-4)GlcNAc(b1-2)Man(a1-3)[Gal(b1-4)GlcNAc(b1-2)Man(a1-6)]Man(b1-4)GlcNAc(b1-4)GlcNAc
Method in brief: as §1

[6] = target: Neu5Ac(a2-6)Gal(b1-4)GlcNAc(b1-2)Man(a1-3)[GlcNAc(b1-2)Man(a1-6)]Man(b1-4)GlcNAc(b1-4)GlcNAc
Method in brief: as §1

[7] = target: Neu5Ac(a2-6)Gal(b1-4)GlcNAc(b1-2)Man(a1-3)[GlcNAc(b1-4)][Neu5Ac(a2-6)Gal(b1-4)GlcNAc(b1-2)Man(a1-6)]Man(b1-4)GlcNAc(b1-4)GlcNAc
Method in brief: as §1

[8] = target: Neu5Ac(a2-6)Gal(b1-4)GlcNAc(b1-2)Man(a1-3)[Man(a1-6)]Man(b1-4)GlcNAc(b1-4)GlcNAc
Method in brief: as §1

[9] = target: Neu5Ac(a2-6)Gal(b1-4)GlcNAc(b1-2)Man(a1-3)[Neu5Ac(a2-3)Gal(b1-4)GlcNAc(b1-2)Man(a1-6)]Man(b1-4)GlcNAc(b1-4)GlcNAc
Method in brief: as §1

[10] = target: Neu5Ac(a2-6)Gal(b1-4)GlcNAc(b1-2)Man(a1-3)[Neu5Ac(a2-6)Gal(b1-4)GlcNAc(b1-2)Man(a1-6)]Man(b1-4)GlcNAc(b1-4)GlcNAc
Method in brief: as §1

[11] = target: Neu5Ac(a2-6)Gal(b1-4)GlcNAc(b1-2)Man(a1-3)[Neu5Ac(a2-6)Gal(b1-4)GlcNAc(b1-2)Man(a1-6)]Man(b1-4)GlcNAc(b1-4)[Fuc(a1-6)]GlcNAc
Method in brief: as §1

[12] = target: Neu5Ac(a2-6)Gal(b1-4)GlcNAc(b1-2)Man(a1-6)Man(b1-4)GlcNAc(b1-4)GlcNAc
Method in brief: as §1

[13] = target: Neu5Ac(a2-6)Gal(b1-4)GlcNAc(b1-2)Man(a1-6)[Gal(b1-4)GlcNAc(b1-2)Man(a1-3)]Man(b1-4)GlcNAc(b1-4)GlcNAc
Method in brief: as §1

[14] = target: Neu5Ac(a2-6)Gal(b1-4)GlcNAc(b1-2)Man(a1-6)[GlcNAc(b1-2)Man(a1-3)]Man(b1-4)GlcNAc(b1-4)GlcNAc
Method in brief: as §1

[15] = target: Neu5Ac(a2-6)Gal(b1-4)GlcNAc(b1-2)Man(a1-6)[Man(a1-3)]Man(b1-4)GlcNAc(b1-4)GlcNAc
Method in brief: as §1

[16] = target: Neu5Ac(a2-6)Gal(b1-4)GlcNAc(b1-2)[Neu5Ac(a2-6)Gal(b1-4)GlcNAc(b1-4)]Man(a1-3)[GlcNAc(b1-4)][Neu5Ac(a2-6)Gal(b1-4)GlcNAc(b1-2)[Neu5Ac(a2-6)Gal(b1-4)GlcNAc(b1-6)]Man(a1-6)]Man(b1-4)GlcNAc(b1-4)GlcNAc
Method in brief: as §1

[17] = target: Neu5Ac(a2-6)Gal(b1-4)GlcNAc(b1-2)[Neu5Ac(a2-6)Gal(b1-4)GlcNAc(b1-4)]Man(a1-3)[GlcNAc(b1-4)][Neu5Ac(a2-6)Gal(b1-4)GlcNAc(b1-4)Man(a1-6)]Man(b1-4)GlcNAc(b1-4)GlcNAc
Method in brief: as §1

[18] = target: Neu5Ac(a2-6)Gal(b1-4)GlcNAc(b1-2)[Neu5Ac(a2-6)Gal(b1-4)GlcNAc(b1-6)]Man(a1-6)[Neu5Ac(a2-6)Gal(b1-4)GlcNAc(b1-2)Man(a1-3)][GlcNAc(b1-4)]Man(b1-4)GlcNAc(b1-4)GlcNAc
Method in brief: as §1

[19] = target: Neu5Ac(a2-6)Gal(b1-4)GlcNAc(b1-3)Gal(b1-3)GlcNAc
Method in brief: as §1

[20] = target: Neu5Ac(a2-6)Gal(b1-4)GlcNAc(b1-3)Gal(b1-4)GlcNAc
Method in brief: as §1

[21] = target: Neu5Ac(a2-6)Gal(b1-4)GlcNAc(b1-3)Gal(b1-4)GlcNAc(b1-2)Man(a1-3)[Neu5Ac(a2-6)Gal(b1-4)GlcNAc(b1-3)Gal(b1-4)GlcNAc(b1-2)Man(a1-6)]GalNAc
Method in brief: as §1

[22] = target: Neu5Ac(a2-6)Gal(b1-4)GlcNAc(b1-3)Gal(b1-4)GlcNAc(b1-3)Gal(b1-4)GlcNAc
Method in brief: as §1

[23] = target: Neu5Ac(a2-6)Gal(b1-4)GlcNAc(b1-3)Gal(b1-4)GlcNAc(b1-3)Gal(b1-4)GlcNAc(b1-2)Man(a1-3)[Neu5Ac(a2-6)Gal(b1-4)GlcNAc(b1-3)Gal(b1-4)GlcNAc(b1-3)Gal(b1-4)GlcNAc(b1-2)Man(a1-6)]GalNAc
Method in brief: as §1

[24] = target: Neu5Ac(a2-6)Gal(b1-4)GlcNAc(b1-3)Gal(b1-4)GlcNAc(b1-3)GalNAc
Method in brief: as §1

[25] = target: Neu5Ac(a2-6)Gal(b1-4)GlcNAc(b1-3)Gal(b1-4)GlcNAc(b1-3)[Neu5Ac(a2-6)Gal(b1-4)GlcNAc(b1-3)Gal(b1-4)GlcNAc(b1-6)]GalNAc
Method in brief: as §1

[26] = target: Neu5Ac(a2-6)Gal(b1-4)GlcNAc(b1-3)Gal(b1-4)GlcNAc(b1-6)[Gal(b1-3)]GalNAc
Method in brief: as §1

[27] = target: Neu5Ac(a2-6)Gal(b1-4)GlcNAc(b1-3)Gal(b1-4)[Fuc(a1-3)]GlcNAc(b1-3)Gal(b1-4)[Fuc(a1-3)]GlcNAc
Method in brief: as §1

[28] = target: Neu5Ac(a2-6)Gal(b1-4)GlcNAc(b1-3)GalNAc
Method in brief: as §1

[29] = target: Neu5Ac(a2-6)Gal(b1-4)GlcNAc(b1-3)[Neu5Ac(a2-6)Gal(b1-4)GlcNAc(b1-6)]GalNAc
Method in brief: as §1

[30] = target: Neu5Ac(a2-6)Gal(b1-4)GlcNAc(b1-6)GalNAc
Method in brief: as §1

[31] = target: Neu5Ac(a2-6)Gal(b1-4)GlcNAc(b1-6)[Gal(b1-3)GlcNAc(b1-3)]Gal(b1-4)Glc
Method in brief: as §1

[32] = target: Neu5Ac(a2-6)Gal(b1-4)GlcNAc(b1-6)[Gal(b1-3)]GalNAc
Method in brief: as §1

[33] = target: Neu5Ac(a2-6)Gal(b1-4)GlcNAc6S
Method in brief: as §1

Neu5Ac(a2-6)GalNAc = target: Neu5Ac(a2-6)GalNAc
Method in brief: as §1

[34] = target: Neu5Ac(a2-6)GalNAc(b1-4)GlcNAc
Method in brief: as §1

[35] = target: Neu5Ac(a2-6)GalNAc(b1-4)GlcNAc6S
Method in brief: as §1

[36] = target: Neu5Ac(a2-6)GlcNAc(b1-4)GlcNAc
Method in brief: as §1

B1: PX14375l-pdi-526-25-526 (Parabacteroides distasonis) (protein)
chain: DEEPKSTLTDVAYYKTQSQMESNVNYLYRTGAIGSYVDFGSAYIGPFASIQEELTGYFSNSYEGQEIVCRYTRELTRQQNTMQLASKMDKVWDDCYRGINVANGAIKHMPEVPMDQATADRLTAEAKFFRAFNYFYLVKTFGAVPFYTDPYELAENMELPRTETSTIYNQIESDLKDAMNVLPEATFAANGHRITKYVAAMTLTDVYMYQHKYAEAAETVRIVVNSNHKLTTNDDLAMNSAFNKLRSTDDLDEAIYAYEYDNQISPSNWLPTYAFDGDASSNGLFGTYAITQKVHGPNDRYLNIYESNDLRRQPNQFYHWTYTNPKTGKVWNSVGNAACCWYYYDEDALLTTGRGTKDWNVYRYAEALLDAAESIAQSTGVTAEAAGYLAQVKARANMEGKTAAEIASSLQSMGKQAFIEECWTERLRELPLEFKMWDMCVRTGMFPNISETTPGQVTYIPLVGAKNASGATIKESDLLWPLSVNEIQRNPSLTQNEGYSAK
[1]
  glycan array binding signal (z-score): -0.064
Neu5Ac(a2-6)Gal(b1-4)Glc
  glycan array binding signal (z-score): 0.019
[2]
  glycan array binding signal (z-score): -0.098
[3]
  glycan array binding signal (z-score): -0.324
[4]
  glycan array binding signal (z-score): -0.029
[5]
  glycan array binding signal (z-score): -0.316
[6]
  glycan array binding signal (z-score): -0.177
[7]
  glycan array binding signal (z-score): -0.181
[8]
  glycan array binding signal (z-score): 0.171
[9]
  glycan array binding signal (z-score): -0.142
[10]
  glycan array binding signal (z-score): -0.099
[11]
  glycan array binding signal (z-score): -0.016
[12]
  glycan array binding signal (z-score): -0.077
[13]
  glycan array binding signal (z-score): -0.406
[14]
  glycan array binding signal (z-score): -0.444
[15]
  glycan array binding signal (z-score): -0.055
[16]
  glycan array binding signal (z-score): -0.181
[17]
  glycan array binding signal (z-score): -0.155
[18]
  glycan array binding signal (z-score): -0.325
[19]
  glycan array binding signal (z-score): -0.104
[20]
  glycan array binding signal (z-score): -0.225
[21]
  glycan array binding signal (z-score): -0.238
[22]
  glycan array binding signal (z-score): -0.254
[23]
  glycan array binding signal (z-score): 0.174
[24]
  glycan array binding signal (z-score): -0.239
[25]
  glycan array binding signal (z-score): 0.043
[26]
  glycan array binding signal (z-score): -0.295
[27]
  glycan array binding signal (z-score): -0.096
[28]
  glycan array binding signal (z-score): -0.311
[29]
  glycan array binding signal (z-score): -0.02
[30]
  glycan array binding signal (z-score): -0.266
[31]
  glycan array binding signal (z-score): -0.32
[32]
  glycan array binding signal (z-score): 0.169
[33]
  glycan array binding signal (z-score): -0.135
Neu5Ac(a2-6)GalNAc
  glycan array binding signal (z-score): -0.089
[34]
  glycan array binding signal (z-score): -0.423
[35]
  glycan array binding signal (z-score): 0.114
[36]
  glycan array binding signal (z-score): -0.478

— the supplement of paper PMC8728848
